Substitutions are numbered along the chain they refer to.
B1: AB200-R1a-Fab_Vk20 (antibody)
heavy: QVQLVQSGAEVKKPGSSVKVSCKASGGTFSNYWMHWVRQAPGQGLEWMGATYRGHSDTYYNQKFKGRVTITADKSTSTAYMELSSLRSEDTAVYYCARGAIYHGYDVLDNWGQGTLVTVSSASTKGPSVFPLAPSSKSTSGGTAALGCLVKDYFPEPVTVSWNSGALTSGVHTFPAVLQSSGLYSLSSVVTVPSSSLGTQTYICNVNHKPSNTKVDKKVEPKSC
light: DIQMTQSPSSLSASVGDRVTITCSASQDISNFLNWYQQKPGKAPKLLIYYTSDLHSGVPSRFSGSGSGTDFTLTISSLQPEDFATYYCQQYYKLPWTFGQGTKLEIKRTVAAPSVFIFPPSDEQLKSGTASVVCLLNNFYPREAKVQWKVDNALQSGNSQESVTEQDSKDSTYSLSSTLTLSKADYEKHKVYACEVTHQGLSSPVTKSFNRGEC
B2: AB200-R1a-Fab_Vk35 (antibody)
heavy: B1 heavy
light: B1 light with I29L, F32Y, D53N, Y92K, L94I
B3: AB200-R1a-Fab(hCDR3) (antibody)
heavy: B1 heavy
light: B1 light with F32Y, D53N, Y91S, K93S, L94T
B4: AB200-R1a-Fab_Vk2 (antibody)
heavy: B1 heavy
light: B1 light with D28E, I29V, F32Y, D53N, Q90E, Y92R
B5: AB200-R1a-Fab_Vk34 (antibody)
heavy: B1 heavy
light: B1 light with Q27H, F32Y, D53N, Q89H, Q90E, Y92R
B6: AB200-R1a-Fab_Vk27 (antibody)
heavy: B1 heavy
light: B1 light with S30T, F32Y, Y50F, D53N
B7: AB200-R1a-Fab_Vk23 (antibody)
heavy: B1 heavy
light: B1 light with F32Y, D53N, L54I, Y92K, L94M
B8: AB200-R1a-Fab_Vk21 (antibody)
heavy: B1 heavy
light: B1 light with F32Y, D53N, Q89H, Y92K, L94T
B9: AB200-R1a-Fab_Vk32 (antibody)
heavy: B1 heavy
light: B1 light with I29L, F32Y, D53S, Y92R, L94T
B10: AB200-R1a-Fab_Vk28 (antibody)
heavy: B1 heavy
light: B1 light with D53N, L54M, Y92R, K93S
B11: AB200-R1a-Fab_Vk26 (antibody)
heavy: B1 heavy
light: B1 light with F32Y, T51S, D53S, S56I, Y92R
B12: AB200-R1a-Fab(hCDR1) (antibody)
heavy: B1 heavy
light: B1 light with S24R, D28S, N31S, F32Y, D53N, Y92R
B13: AB200-R1a-Fab_Vk18 (antibody)
heavy: B1 heavy
light: B1 light with S24T, F32Y, S56I, Y92R
B14: AB200-R1a-Fab_Vk3 (antibody)
heavy: B1 heavy
light: B1 light with F32Y, L33I, D53N, L54M, Y92R, T97S
B15: AB200-R1a-Fab_Vk29 (antibody)
heavy: B1 heavy
light: B1 light with Q27H, I29V, F32Y, D53N, Y92R, K93R
B16: AB200-R1a-Fab_Vk30 (antibody)
heavy: B1 heavy
light: B1 light with S24T, D28S, F32Y, L33I, D53N, Y92R
B17: AB200-R1a-Fab_Vk1 (antibody)
heavy: B1 heavy
light: B1 light with S24R, N31S, F32Y, D53N, L54I, Y92R
B18: AB200-R1a-Fab_Vk25 (antibody)
heavy: B1 heavy
light: B1 light with F32Y, Y50A, T51A, D53N, Y92R, L94I
B19: AB200-R1a-Fab_Vk19 (antibody)
heavy: B1 heavy
light: B1 light with Q27N, F32Y, L33I, D53N, Y91F, Y92R
B20: AB200-R1a-Fab_Vk36 (antibody)
heavy: B1 heavy
light: B1 light with I29L, F32Y, D53N, H55Q, Y92R, K93R
B21: AB200-R1a-Fab_Vk24 (antibody)
heavy: B1 heavy
light: B1 light with Q27N, D28S, F32Y, T51A, D53N, Y92R
B22: AB200-R1a-Fab(hCDR2) (antibody)
heavy: B1 heavy
light: B1 light with F32Y, Y50A, T51A, D53S, H55Q, Y92R
B23: AB200-R1a-Fab_Vk31 (antibody)
heavy: B1 heavy
light: B1 light with F32Y, D53N, L54I, S56I, Y92R, T97S
B24: AB200-R1a-Fab_Vk22 (antibody)
heavy: B1 heavy
light: B1 light with S24R, F32Y, D53N, Y92R, K93S, L94I
B25: AB200-R1a-Fab_Vk33 (antibody)
heavy: B1 heavy
light: B1 light with N31S, F32Y, Y50F, D53N, Y91S, Y92R
B26: AB216: humanized anti-BCMA antibody, heavy chain SEQ ID NO: 100, light chain SEQ ID NO: 101 (antibody)
heavy: QVQLVQSGAEVKKPGSSVKVSCKASGGTFSNYWIHWVRQAPGQGLEWMGATYRIQSDTYYNQKYKSRVTITADKSTSTAYMELSSLRSEDTAVYYCARGAVYHGYDVIDNWGQGTLVTVSS[omitted - human IgG1 constant region]
light: DIQMTQSPSSLSASVGDRVTITCRASQSISSYINWYQQKPGKAPKLLIYATSNLQIGVPSRFSGSGSGTDFTLTISSLQPEDFATYYCQQYRRLPWSFGQGTKLEIKRTVAAPSVFIFPPSDEQLKSGTASVVCLLNNFYPREAKVQWKVDNALQSGNSQESVTEQDSKDSTYSLSSTLTLSKADYEKHKVYACEVTHQGLSSPVTKSFNRGEC
B27: AB213: humanized anti-BCMA antibody, heavy chain SEQ ID NO: 94, light chain SEQ ID NO: 95 (antibody)
heavy: B26 heavy with S30T, A50G, I54S, Q55H, D57T, Y64F
light: B26 light with I33L, Y91F, S97T

Assay: ThermoFluor thermostability (Tm)
Type: physicochemical
Details: Light chain screening Round 1; Fab, paired with heavy chain AB200_D99H

Molecule	Tm [°C]
B1	82.03
B2	82.69
B3	84.76
B4	75.43
B5	76.90
B6	82.86
B7	83.32
B8	80.80
B9	79.68
B10	81.80
B11	82.42
B12	82.81
B13	81.44
B14	80.00
B15	82.79
B16	82.50
B17	82.67
B18	85.93
B19	83.86
B20	81.26
B21	81.41
B22	84.86
B23	81.68
B24	84.15
B25	85.36

Same assay, conditions: thermostability of selected clones

Molecule	Tm [°C]
B26	78.4
B27	85.9

Reference: patent US12043670B2, “Anti-BCMA antibody-drug conjugates and methods of use” (Eisai R&D Management Co., Ltd., priority 2020, dated 2024)
